Measurements: PubChem BioAssay AID686978 (National Center for Advancing Translational Sciences (NCATS), 2013)
The whole screen tested about 420,000 compounds, of which about 64,000 (15%) were called active. This list was built around the results that the source calls inconclusive (neither active nor inactive); the mix of calls is not that of the screen. The call rests on the fitted dose curve; in most records, active means well fitted inhibition curve with a large enough effect; inconclusive means small, poorly fitted or top-dose-only effect; inactive means flat fitted curve, though single readings scatter. No potency is given beside an inconclusive call; the fits are too rough.

Test: qHTS for Inhibitors of human tyrosyl-DNA phosphodiesterase 1 (TDP1): qHTS in cells in absence of CPT; further: nearly all actives have a fitted effect of over 55% in size
Conditions: DT40 Tdp1-/- hTDP1 cells, no CPT, ATP luminescence, 48 h; activity change, negative = growth inhibition: at 46.2 µM (top of the series) unless noted
In short: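 Compound effects on proliferation are scored in DT40 Tdp1-/-;hTDP1 cells in the absence of CPT. ATP levels (CellTiter-Glo luminescence) are recorded after a ≥48 hr, 37 °C incubation.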
On the % scale 0 is the no-effect control and ±100 the full control effect; potency means the concentration at half of the fitted maximal effect; tags describe the fitted curve by direction and shape.

For `CCOc1ccccc1OCCC(=O)N1CCN(S(=O)(=O)c2ccccc2[N+](=O)[O-])CC1`, which Potency is on record?
The Potency was inconclusive [inhibitor, single point].

With `COc1ccc(C(c2nnnn2C2CCCC2)N2CCN(c3ccccc3)CC2)cc1` (stereo unspecified) as the compound, how does the Potency read?
Its Potency is inconclusive [inhibitor, single point].

With `COC(=O)c1cc(NC(=O)c2cc(-c3ccc(C(F)(F)F)cc3)oc2C(F)(F)F)ccc1N1CCOCC1` as the compound, how does the Potency read?
The Potency was active: 20.6 µM.

With `CCCN(C(=O)c1c(C)oc2ncn(CC(C)C)c(=O)c12)c1ccccc1C` as the compound, how does the Potency read?
Its Potency is inconclusive [inhibitor, single point].

Which Potency does the source give for `CCn1cc(C(=O)OCc2ccccc2)c(=O)c2ccc(C)nc21` here?
The Potency was inconclusive [inhibitor, single point].

Which “activity change, negative = growth inhibition” value does the source give for `Cc1cccc(N=C2CCCC2C(=O)Nc2cccc(C)c2C)c1C` (stereo unspecified) here?
The value was inactive: -9.02%.

For `CC(=O)N1CCc2ccc(S(=O)(=O)N3CCN(C)CC3)cc21`, which Potency is on record?
The Potency was inconclusive [inhibitor, partial curve, poor fit].

For `CCCCC(CC)CNC(=O)c1ccc(Cn2c(=O)[nH]c3cc(OC)c(OC)cc3c2=O)cc1` (stereo unspecified), which Potency is on record?
Its Potency is inconclusive [inhibitor, single point].

Which “activity change, negative = growth inhibition” value does the source give for `O=C(CSc1nc2ncc(Cl)cc2[nH]1)N1CCC(Cc2ccccc2)CC1` here?
The value was inactive: -8.38%.

With `CC(=O)N1CCN(c2c(F)c(F)c(C(F)(F)F)c(F)c2F)CC1` as the compound, how does the Potency read?
Its Potency is active: 14.6 µM.

Which Potency does the source give for `CCOc1ccccc1NC(=O)CSc1nnc(CC)c(CC)n1` here?
The Potency was inconclusive [inhibitor, single point].

Which Potency does the source give for `Cc1ccn(CCC(=O)N2CCOc3ccc(C(O)C4CCCCC4)cc3C2)n1` (stereo unspecified) here?
Its Potency is inconclusive [inhibitor, single point].

With `O=C(O)c1ccccc1N/N=C/c1cc(Br)cc(Br)c1O` as the compound, how does the Potency read?
Its Potency is inconclusive [inhibitor, partial curve, poor fit].

With `CCOC(=O)C(=O)c1c(-c2ccc(C)cc2)nc2ccccn12` as the compound, how does the Potency read?
The Potency was inconclusive [inhibitor, partial curve, poor fit].

With `O=C(NC12CC3CC(CC(C3)C1)C2)c1cc([N+](=O)[O-])ccc1N1CCOCC1` as the compound, how does the “activity change, negative = growth inhibition” value read?
The value was inactive: 0.274%.

With `CCCN1C(=O)/C(=C\C=C2/C=CN(CC)c3ccccc32)SC1=S` as the compound, how does the Potency read?
The Potency was active: 10.3 µM.

For `Cn1c(=O)c2c(nc(Oc3ccc(-c4ccccc4)cc3)n2C)n(C)c1=O`, which Potency is on record?
Its Potency is inconclusive [inhibitor, single point].

Which Potency does the source give for `O=C(c1ccco1)N1N=C(c2ccccc2O)CC1c1cccs1` (stereo unspecified) here?
The Potency was inconclusive [inhibitor, single point].

For `Cc1ccc(NC(=O)Nc2nnc(CSCCOc3ccc(Cl)cc3)s2)cc1`, which Potency is on record?
Its Potency is inconclusive [inhibitor, partial curve].

With `CCOC(=O)Cc1nn(C)c(=O)c2ccccc12` as the compound, how does the Potency read?
The Potency was inconclusive [inhibitor, single point].

For `CC(=O)Nc1cncc(-c2ccccc2CO)n1`, which “activity change, negative = growth inhibition” value is on record?
Its value is inactive: 0.247%.

Which Potency does the source give for `CCC(C(=O)NCc1ccco1)N(C(=O)CNS(=O)(=O)c1ccc(F)cc1)c1ccccc1F` (stereo unspecified) here?
Its Potency is inconclusive [inhibitor, single point].

Which Potency does the source give for `COc1ccc(-c2ccc(C#N)c(SCC(=O)NCc3ccco3)n2)cc1OC` here?
The Potency was inconclusive [inhibitor, partial curve, poor fit].

Which Potency does the source give for `COc1cccc(CN2CCCN(Cc3ccc(F)cc3)S2(=O)=O)c1` here?
The Potency was inconclusive [inhibitor, single point].

With `COc1nc(N/N=C/c2ccc(-c3ccccc3[N+](=O)[O-])o2)nc(N2CCOCC2)n1` as the compound, how does the Potency read?
Its Potency is inconclusive [inhibitor, partial curve, poor fit].

With `Cc1nc2c(C)cccc2cc1C(=O)N/N=C/c1ccc(O)cc1` as the compound, how does the Potency read?
The Potency was inconclusive [inhibitor, single point].

Which “activity change, negative = growth inhibition” value does the source give for `CCc1cc2c(NCCC(=O)O)nc(C)nc2s1` here?
Its value is inactive: -10.8%.

Which Potency does the source give for `CCCn1c2ccccc2c2cn[nH]c(=O)c21` here?
Its Potency is inconclusive [inhibitor, single point].

For `O=C(C[n+]1cccc(Br)c1)c1ccc(Br)cc1`, which “activity change, negative = growth inhibition” value is on record?
Its value is inactive: -3.68%.

For `CCCS(=O)(=O)c1nc(S(=O)(=O)c2ccc(C)cc2)c(N2CCC(C(N)=O)CC2)s1`, which “activity change, negative = growth inhibition” value is on record?
The value was inactive: -14%.

With `COc1cc(/C=N/NC(=O)/C(=C\c2ccc([N+](=O)[O-])cc2)NC(=O)c2ccccc2)cc(OC)c1O` as the compound, how does the Potency read?
Its Potency is inconclusive [inhibitor, single point].

With `Cc1ccc(O)c(NC(=O)C2=CC(c3cccs3)=NS(=O)(=O)N2C)c1` as the compound, how does the Potency read?
Its Potency is inconclusive [inhibitor, single point].

Which Potency does the source give for `CCCCC(=O)O[C@]1(C(=O)CO)[C@H](C)C[C@H]2[C@@H]3CCC4=CC(=O)C=C[C@]4(C)[C@@]3(F)[C@@H](O)C[C@@]21C` here?
Its Potency is active: 13.3 µM.

Which “activity change, negative = growth inhibition” value does the source give for `O=C(COC(=O)c1ccc(O)cc1O)c1ccc(Cl)cc1` here?
The value was inactive: -17.1%.

With `Cc1ccc(-n2c(SCC(=O)NCC3CCCO3)nc3ccccc3c2=O)cc1` (stereo unspecified) as the compound, how does the “activity change, negative = growth inhibition” value read?
The value was inactive: -0.68%.

Which “activity change, negative = growth inhibition” value does the source give for `COc1ccc(NC2CCCN(C(=O)CCc3ccncc3)C2)cc1OC` (stereo unspecified) here?
The value was inactive: 12.6%.

Which Potency does the source give for `CC(C)N(Cc1nccn1C)C(=O)c1cc(COc2ccc(F)cc2Cl)on1` here?
The Potency was inconclusive [inhibitor, single point].

With `CCOc1ccc(NC(=O)COc2ccc(S(=O)(=O)N3CCCC3)cc2)cc1` as the compound, how does the Potency read?
The Potency was inconclusive [inhibitor, full curve, poor fit].

For `Cc1[nH]cnc1C(=O)N/N=C/c1c(Cl)cccc1Cl`, which Potency is on record?
Its Potency is inconclusive [inhibitor, partial curve, poor fit].

Which “activity change, negative = growth inhibition” value does the source give for `COc1ccccc1CN1CCCC(N2CCN(c3ccc(F)cc3)CC2)C1` (stereo unspecified) here?
The value was inactive: -13%.

With `CCOC(=O)C1=CN(Cc2ccco2)S(=O)(=O)N(C)C1c1ccc2ccccc2c1` (stereo unspecified) as the compound, how does the Potency read?
Its Potency is inconclusive [inhibitor, single point].

For `COC(=O)[C@]12CCCCC=C1N(Cc1ccco1)C(=O)[C@H](CC(=O)NCc1cccc(C(F)(F)F)c1)C2`, which Potency is on record?
Its Potency is inconclusive [inhibitor, single point].

With `O=C(COc1cccc2cccnc12)N/N=C/c1cccn1-c1ccc(F)cc1` as the compound, how does the Potency read?
Its Potency is inconclusive [inhibitor, single point].

With `Cn1cc(S(=O)(=O)N2CCc3ccccc32)cc1C(=O)Nc1ccc(C(F)(F)F)cc1` as the compound, how does the Potency read?
Its Potency is inconclusive [inhibitor, single point].

Which Potency does the source give for `O=C(c1ccccc1F)N1CCc2ccccc21` here?
Its Potency is inconclusive [inhibitor, partial curve].

With `CCOc1ccc(NC(=O)CSc2nc3ccccc3nc2N2CCCC2)cc1` as the compound, how does the Potency read?
Its Potency is active: 16.4 µM.

With `CCOc1ccccc1NC(=O)Cn1c(=O)n(-c2ccc(Cl)cc2)c(=O)c2oc3ccccc3c21` as the compound, how does the “activity change, negative = growth inhibition” value read?
The value was inactive: -13%.

For `Cc1ccc(-n2nc(C(=O)N3CCN(c4cc(C)ccc4C)CC3)c3c4ccccc4n(C)c3c2=O)cc1`, which “activity change, negative = growth inhibition” value is on record?
Its value is inactive: -0.854%.

With `COc1ccc(-c2ccc(-c3noc(C4CCCCC4)n3)c(OC)n2)cc1` as the compound, how does the Potency read?
Its Potency is inconclusive [inhibitor, partial curve].

With `COc1ccnc(Oc2ccc(F)cc2)c1C(=O)N/C=N/OCc1c(Cl)cccc1Cl` as the compound, how does the Potency read?
Its Potency is inconclusive [inhibitor, single point].

Which Potency does the source give for `Cc1c(NC(=O)C(C)(C)C)cccc1-c1nc2ccccc2s1` here?
Its Potency is inconclusive [inhibitor, single point].

For `COc1cccc(N2CCN(C(=O)C3C4C=CC5(CN(Cc6ccccc6Cl)C(=O)C35)O4)CC2)c1` (stereo unspecified), which Potency is on record?
Its Potency is inconclusive [inhibitor, partial curve].

Which Potency does the source give for `C/C(=N\N=c1/sc2ccccc2n1C)c1ccccn1` here?
The Potency was inconclusive [inhibitor, single point].

For `O=C(CN1CCC(C(=O)c2ccc3c(c2)OCCO3)CC1)Nc1ccccc1C(F)(F)F`, which Potency is on record?
Its Potency is inconclusive [inhibitor, single point].

With `Cn1c(=O)n(C)c2cc(N3CCCCC3)c(NC(=O)Nc3ccc(Br)cc3)cc21` as the compound, how does the Potency read?
Its Potency is inconclusive [inhibitor, partial curve].

For `COc1ccc(C(=O)Nc2ccccc2C(=O)NC(Cc2ccc(O)cc2)C(=O)NNC(=O)c2ccncc2)cc1` (stereo unspecified), which “activity change, negative = growth inhibition” value is on record?
The value was inactive: -4.42%.

With `CC(C)(C)NC(=O)/C=C/c1cccs1` as the compound, how does the “activity change, negative = growth inhibition” value read?
Its value is inactive: 13.9%.

With `COc1ccc(C(=O)NC(=S)Nc2nc(-c3ccc(OC)c(Br)c3)cs2)cc1Br` as the compound, how does the Potency read?
Its Potency is inconclusive [inhibitor, single point].

With `CC1(C)CC(=O)c2cc(C(=O)Nc3ccccc3)c(=O)[nH]c2C1` as the compound, how does the Potency read?
The Potency was inconclusive [inhibitor, single point].

For `CNC(=O)c1c(C)nn(-c2ccc(F)c(Cl)c2)c1-c1cc(C)on1`, which Potency is on record?
The Potency was inconclusive [inhibitor, partial curve].

Which Potency does the source give for `COC(=O)c1cccc(C23CC4(C2)[C@H](CN(Cc2ccc(-c5ccccc5)cc2)[C@@H]4c2ccccc2)C3c2ccccc2)c1` (stereo partly specified) here?
The Potency was inconclusive [inhibitor, partial curve].

With `CCc1cccc(NS(=O)(=O)c2ccc3c(c2)NC(=O)C(C)S3)c1` (stereo unspecified) as the compound, how does the Potency read?
Its Potency is inconclusive [inhibitor, partial curve].

Which Potency does the source give for `CCCCN(CC)c1nc(-c2ccncc2)nc2ccccc12` here?
The Potency was inconclusive [inhibitor, single point].

For `CCN(CC)c1ccc(NC(=O)Cn2cc3c(n2)CCCC3)c(C)c1`, which Potency is on record?
The Potency was inconclusive [inhibitor, single point].

Which Potency does the source give for `COC1=C(Br)C(=O)c2nc(C)ccc2C1=O` here?
Its Potency is active: 0.58 µM.

With `CC(C)c1ccc(S(=O)(=O)c2nnn3c2nc(N2CCCCC2)c2ccccc23)cc1` as the compound, how does the Potency read?
The Potency was inconclusive [inhibitor, partial curve].
